Assay results as given in PubChem BioAssay AID924 (National Center for Advancing Translational Sciences (NCATS), 2007).
Hit rate of the full screen: of about 130,000 compounds, about 1,200 (0.92%) were called active. Inconclusive results, whose numbers are uncertain, are shown with a selection of clear calls. Calls follow the shape of the dose curve; as a rule, active = well fitted cell-killing curve with a large enough effect; inconclusive = small, poorly fitted or top-dose-only effect; inactive = no such curve, though single readings can be large or run the other way. Where the call is inconclusive, the potency comes from a doubtful curve fit.

Experiment: qHTS Screen for Compounds that Selectively Target Cancer Cells with p53 Mutations: Cytotoxicity of p53ts Cells at the Permissive Temperature; also: nearly all actives have a fitted effect of over 55% in size;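 as to activity change, negative = cytotoxicity: 0% = DMSO and -100% = full killing by reference compound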
Details: H1299-p53A138V at 32C, ATP luminescence viability, 24 h; activity change, negative = cytotoxicity: at 46.1 µM (top of the series)
In short: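 Viability by ATPlite luminescence after 24 h compound treatment (up to 46 uM) at the permissive 32C. Cells are H1299 carrying p53 A138V. Scale runs from DMSO basal to 100 uM tamoxifen as full kill; AC50 from Hill fits.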
Potency is read from the fitted curve at half-maximal effect; tags tell the direction and shape of the fitted curve.

Row | SMILES | Potency | activity change, negative = cytotoxicity
1 | O=C(/C=C/c1ccco1)Nc1ccc(F)cc1 | inconclusive: 12.6 µM [cytotoxic, partial curve] | –
2 | COc1cccc(C(=O)Oc2c(Sc3ccc(C)cc3)c(C)nn2C(C)(C)C)c1OC | inconclusive: 10 µM [cytotoxic, partial curve] | –
3 | CC(C)Cc1nn2c(=O)cc(COC(=O)c3ccc(NC(=O)C4CCCCC4)cc3)nc2s1 | – | inactive: 0.766%
4 | Cc1ccc(CNC(=O)C(C)n2nc(C)c3sc4ccccc4c3c2=O)cc1 (configuration not stated) | inconclusive: 10 µM [cytotoxic, partial curve] | –
5 | Cc1cc(C)c(NC(=O)Cn2c(=O)n(Cc3ccc(C(=O)NCc4ccc5c(c4)OCO5)cc3)c(=O)c3ccccc32)c(C)c1 | inconclusive: 20 µM [cytotoxic, partial curve] | –
6 | CCOc1cccc(CC(=O)N2CCc3c([nH]c4ccc(OC)cc34)C2c2ccc(F)cc2)c1OCC (configuration not stated) | inconclusive: 3.16 µM [cytotoxic, full curve, poor fit] | –
7 | COc1ccccc1N1CCN(C(CNC(=O)C(=O)NCc2cccnc2)c2cccnc2)CC1 (configuration not stated) | inconclusive: 31.6 µM [cytotoxic, single point] | –
8 | CCCCOC(=O)CN1C(=O)c2ccc(C(=O)OCCCC)cc2C1=O | – | inactive: -0.498%
9 | CCCN1C(=O)C(O)(CC(=O)c2ccc(C(C)C)cc2)c2ccccc21 (configuration not stated) | – | inactive: 2.15%
10 | Oc1ccc(NCc2ccc(OCc3ccccc3)cc2)cc1 | inconclusive: 12.6 µM [cytotoxic, partial curve] | –
11 | Cn1nc(C(=O)N2CCN(c3ccc(F)cc3)CC2)c2c1-c1ccccc1SC2 | inconclusive: 25.1 µM [cytotoxic, single point] | –
12 | COc1ccc2c(c1)sc1ncc(C(=O)NCc3cccc(C)c3)c(=O)n12 | – | inactive: 6.44%
13 | COc1ccc(CNc2nc(SCc3ccccc3Cl)nc3ccccc23)cc1 | inconclusive: 31.6 µM [cytotoxic, single point] | –
14 | CCNC(=O)c1c(NC(=O)c2nc(S(=O)(=O)CC)ncc2Cl)sc2c1CCCC2 | inconclusive: 15.8 µM [cytotoxic, single point] | –
15 | COc1ccccc1NC(=O)c1sc2nc3c(cc2c1N)CN(Cc1ccccc1)CC3 | inconclusive: 31.6 µM [cytotoxic, single point] | –
16 | COc1ccc(CCNC(=O)c2ccc3c(c2)ncn3-c2ccc(C(C)C)cc2)cc1OC | inconclusive: 35.5 µM [cytotoxic, single point] | –
17 | Cc1cc(N)n2ncc(-c3ccccc3)c2n1 | inconclusive: 10 µM [cytotoxic, partial curve] | –
18 | CN1CCN(c2ncc3nc(CCc4ccccc4)c(=O)n(Cc4cccs4)c3n2)CC1 | inconclusive: 31.6 µM [cytotoxic, single point] | –
19 | CCOC(=O)N1CCC(c2cc(=O)n3[nH]c(C)c(-c4ccc(F)cc4)c3n2)CC1 | inconclusive: 15.8 µM [cytotoxic, single point] | –
20 | COc1ccc(-c2csc3ncnc(Nc4cc(OC)cc(OC)c4)c23)cc1 | inconclusive: 31.6 µM [cytotoxic, single point] | –
21 | CCOc1ccccc1NS(=O)(=O)c1ccc(OC)c(OC)c1 | – | inactive: -17.1%
22 | c1cn2c(NC3CCCC3)c(-c3ccc(N4CCOCC4)cc3)nc2cn1 | active: 10 µM | –
23 | Cc1ccc(C(NC(=O)N2CCOCC2)=C(Cl)Cl)cc1F | inconclusive: 25.1 µM [cytotoxic, single point] | –
24 | COc1ccccc1CCNC(=O)C1CCN(c2nnc(C)c3c(C)n(-c4ccc(C)cc4)nc23)CC1 | inconclusive: 31.6 µM [cytotoxic, single point] | –

Row | SMILES | Potency | activity change, negative = cytotoxicity
25 | Cn1c(C(=O)NCc2cccc(Cl)c2)cc2oc3ccccc3c21 | inconclusive: 6.31 µM [cytotoxic, full curve] | –
26 | CCC(CC)C(=O)Nc1cc(-c2nc3cccnc3s2)ccc1C | inconclusive: 12.6 µM [cytotoxic, single point] | –
27 | Cc1cc(C(=O)Nc2nc3c(s2)CCCC3)no1 | inconclusive: 15.8 µM [cytotoxic, partial curve] | –
28 | COc1ccc(CCNC(=O)c2c(C)oc3ncn(CC(C)C)c(=O)c23)c(OC)c1 | – | inactive: -2.73%
29 | CN=c1nc(-c2ccccc2)n(-c2ccccc2)s1 | inconclusive: 25.1 µM [cytotoxic, single point] | –
30 | Cc1ccc2nc(SCC(=O)Nc3cc(C)on3)[nH]c2c1 | – | inactive: 7.68%
31 | Cn1c(CCNC(=O)c2ccco2)nc2cc(NC(=O)c3ccco3)ccc21 | inconclusive: 10 µM [cytotoxic, partial curve] | –
32 | Cc1ccc(OCC(=O)Nc2ccc3nn(-c4ccc(C)cc4)nc3c2)cc1 | – | inactive: -3.81%
33 | COc1cccc(C(=O)NCCn2ccc3ccccc32)c1 | inconclusive: 25.1 µM [cytotoxic, single point] | –
34 | COc1ccc(-c2cc(C(=O)NCCc3ccccc3)c3c(-c4ccc(Cl)cc4)[nH]nc3n2)cc1 | active: 12.6 µM | –
35 | Cc1ccc(CSc2nc3ccncc3n2Cc2nc(-c3ccccc3C)oc2C)cc1 | active: 12.6 µM | –
36 | O=C(Nc1ccc2c(c1)Cc1ccccc1-2)c1ccco1 | inconclusive: 20 µM [cytotoxic, single point] | –
37 | COC(=O)[C@@]1(Cc2ccccc2)[C@H]2c3cc(C(=O)N4CCCC4)n(C)c3C[C@H]2CN1C(=O)c1ccccc1 | – | inactive: 7.99%
38 | CCC(=O)n1nc(-c2ccco2)nc1SCc1ccccc1 | inconclusive: 12.6 µM [cytotoxic, partial curve] | –
39 | N#Cc1c(/N=C/c2cc3ccccc3s2)sc2c1CCC2 | – | inactive: 1.66%
40 | COc1ccccc1CNc1ncncc1-c1ccc(N(C)C)cc1 | inconclusive: 25.1 µM [cytotoxic, single point] | –
41 | CCN1CCN(CC(=O)Nc2cc(C)c(C)cc2[N+](=O)[O-])CC1 | inconclusive: 10 µM [cytotoxic, partial curve, poor fit] | –
42 | NC(=O)c1ccccc1NC(=O)CCc1ccccc1 | inconclusive: 12.6 µM [cytotoxic, single point] | –
43 | O=C1NCCCC2c3cc(O)c4ccccc4c3OC12N1CCCCC1 (configuration not stated) | active: 6.31 µM | –
44 | COc1cccc(-c2csc(N3CCN(C(=O)C4CCCCC4)CC3)n2)c1 | inconclusive: 31.6 µM [cytotoxic, single point] | –
45 | O=S(=O)(c1ccc2c(c1)C(=NO)c1cc(S(=O)(=O)N3CCCCC3)ccc1-2)N1CCCCC1 | inconclusive: 0.631 µM [cytotoxic, single point] | –
46 | Cc1ccccc1NC(=O)c1cc2ccccc2o1 | inconclusive: 10 µM [cytotoxic, partial curve] | –
47 | Clc1ccc(-n2nnnc2-c2ccccc2)cc1 | – | inactive: 1.79%
48 | Cc1noc(NS(=O)(=O)c2ccc(NC(=O)COc3ccccc3Br)cc2)c1C | – | inactive: -7.17%

Row | SMILES | Potency | activity change, negative = cytotoxicity
49 | Cc1cccc(-c2nnc(-c3ccc(N)cc3)o2)c1 | inconclusive: 6.31 µM [cytotoxic, partial curve] | –
50 | CC(C)c1ccc(NC(=O)c2cccnc2)cc1 | inconclusive: 10 µM [cytotoxic, partial curve] | –
51 | N=C1C(c2nc3ccccc3[nH]2)=C(O)CN1c1ccccc1 | – | inactive: -7.5%
52 | O=C(Nc1ccc(F)cc1)c1ncn(-c2ccccc2)n1 | inconclusive: 10 µM [cytotoxic, partial curve] | –
53 | CCCOc1ccc(C(=O)Nc2cccc(NC(=O)c3ccc(Cl)cc3Cl)c2)cc1 | inconclusive: 10 µM [cytotoxic, partial curve] | –
54 | Cc1ccc(S(=O)(=O)c2c(C)nn(C(C)(C)C)c2OC(=O)c2ccc(Br)o2)cc1 | active: 10 µM | –
55 | O=C(Cn1cnc([N+](=O)[O-])c1)Nc1cc(Oc2ccc(Cl)cc2Cl)cc([N+](=O)[O-])c1 | inconclusive: 15.8 µM [cytotoxic, single point] | –
56 | COc1ccc(CSc2nc3ccncc3n2Cc2nc(-c3ccc(OC)c(OC)c3)oc2C)cc1 | inconclusive: 20 µM [cytotoxic, single point] | –
57 | CCCCc1nn2c(=O)cc(COC(=O)c3ccccc3NC(=O)C3CCCCC3)nc2s1 | – | inactive: -4.26%
58 | Nc1c(Cl)cc(Cl)cc1Cl | – | inactive: 7.52% [at 1.84 µM]
59 | Cc1sc2ncnc(Sc3nnnn3-c3ccc(Cl)cc3)c2c1C | active: 10 µM | –
60 | O=C(Nc1ccc(Br)cc1)c1ccc(Br)c(S(=O)(=O)NCc2ccccc2)c1 | inconclusive: 11.2 µM [cytotoxic, single point] | –
61 | O=C(O)/C=C\C(=O)N1Cc2cc3ccccc3nc2C1 | – | inactive: 3.18% [at 9.22 µM]
62 | COc1ccccc1CNC(=O)Nc1ccc2c(c1)N(C)C(=O)c1ccccc1S2 | – | inactive: 15.5%
63 | CN(C(=O)c1cccc(Nc2ccc(-c3ccc4c(c3)OCCO4)nn2)c1)C1CCCCC1 | active: 12.6 µM | –
64 | c1ccc2c(c1)Cn1c-2nc2ccccc21 | active: 12.6 µM | –
65 | N#Cc1c(-c2ccccc2)no[n+]1[O-] | inconclusive: 31.6 µM [cytotoxic, single point] | –
66 | COc1ccc(S(=O)(=O)NCC(c2cccs2)S(=O)(=O)c2ccc(C)cc2)cc1F (configuration not stated) | – | inactive: 5.95%
67 | CCN1CCN(Cc2ccc(NC(=O)Nc3ccccc3OC)cc2)CC1 | active: 7.94 µM | –
68 | Cc1ccc(NC(=O)CCc2c(C)nn(-c3ccc(N4CCCCC4)nn3)c2C)cc1F | inconclusive: 10 µM [cytotoxic, partial curve] | –
69 | c1c2c(cc3sc(N4CCCCC4)nc13)OCCO2 | active: 1.26 µM | –
70 | COc1ccc(-c2cc(=O)c3ccccc3o2)cc1 | inconclusive: 25.1 µM [cytotoxic, single point] | –
71 | O=C(Oc1ccc(Br)cc1)C1CC(=O)N(c2ccc(F)cc2)C1 (configuration not stated) | – | inactive: 7.12%
72 | O=C(CSc1c2c(nc3ccc(Cl)cc13)CCCC2)N1CCN(C(=O)c2ccco2)CC1 | inconclusive: 25.1 µM [cytotoxic, single point] | –
